Screen size: about 330,000 compounds; about 4,200 (1.3%) were called active. Inconclusive results, whose numbers are uncertain, are shown with a selection of clear calls. The call rests on the fitted dose curve; in most records, active means well fitted activation curve with a large enough effect; inconclusive means small, poorly fitted or top-dose-only effect; inactive means no such curve, though single readings can be large or run the other way. Where the call is inconclusive, the potency comes from a doubtful curve fit.
Test: qHTS screen for small molecules that induce genotoxicity in human embryonic kidney (HEK293T) cells expressing luciferase-tagged ELG1; further: nearly all actives have a fitted effect of over 60% in size; on activity change, positive = activation: % of control where 0% means no effect
Details: HEK293T ELG1-luciferase reporter, luminescence, 16 h; series mostly up to 46 µM; activity change, positive = activation: at the top concentration
Outline: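 Step 1: seed 2,000 HEK293T ELG1-luciferase cells per well. Step 2: add compound or DMSO, incubate 16 hr at 37 °C. Step 3: ONE-Glo, 30 min at room temperature, read luminescence.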
For CCN1C(=O)c2cccc3c(S(=O)(=O)NCc4ccccc4)ccc1c23, the “activity change, positive = activation” value was inactive: 16.8%. In the case of CCCCCOC(=O)Nc1nnc(CCCCC)s1, the “activity change, positive = activation” value was inactive: 1.53%. With COc1ccc(NC(=O)CC(c2ccco2)C(C)C)cc1 (configuration not stated) the “activity change, positive = activation” value was inactive: 0.317%. In the case of COc1cccc(CN(C(=O)Cc2c[nH]c3ccccc23)C(C(=O)NC2CCCCC2)c2cccs2)c1 (configuration not stated), the “activity change, positive = activation” value was inactive: -17.6%. In the case of O=C(c1cc(-c2ccncc2)nc2ccccc12)N1CCN(c2ccccn2)CC1, the “activity change, positive = activation” value was inactive: -10%. In the case of CC(=O)N1CCC(=NNC(=O)c2cccs2)CC1, the Potency was inconclusive: 29.1 µM [activator, partial curve, poor fit]. With Cc1cc2nc(CS(=O)(=O)c3ccccc3)cc(=O)n2[nH]1 the “activity change, positive = activation” value was inactive: -3.32%. In the case of CC(=O)C1=C(C)OC(N)=C(C#N)C1c1cc([N+](=O)[O-])ccc1Cl (configuration not stated), the “activity change, positive = activation” value was inactive: 6.67%. With CSc1ccccc1OCc1cc(C(=O)N[C@H]2CCCCNC2=O)no1 the Potency was inconclusive: 5.8 µM [activator, partial curve]. For O=C(COc1ccc2c(c1)OCO2)Nc1nncs1, the Potency was inconclusive: 35.5 µM [activator, partial curve, poor fit]. For Cc1cc(C(=O)NCCC(c2ccccc2)c2ccccc2)c(C)o1, the “activity change, positive = activation” value was inactive: -2.13%. For O=C(CSc1nc2ccccc2c(=O)n1-c1ccc(F)cc1)NCc1ccco1, the Potency was inconclusive: 32.6 µM [activator, partial curve, poor fit]. With CCOC(=O)Nc1ccc2nc(N3CCCCCC3)sc2c1 the Potency was active: 10.3 µM. For O=C(CSc1nnc(-c2ccccc2)o1)Nc1ccccc1F, the Potency was inconclusive: 0.291 µM [activator, full curve, poor fit]. With O=[N+]([O-])c1ccccc1OCCCN1CCOCC1 the “activity change, positive = activation” value was inactive: 1.4%. In the case of Cc1ccc(/C=C/C(=O)c2ccc(C)cc2)cc1, the Potency was inconclusive: 25.9 µM [activator, partial curve, poor fit]. In the case of CCOC(=O)c1c(C)[nH]c(C(=O)OCC(=O)NCc2ccccc2)c1C, the “activity change, positive = activation” value was inactive: 0.137%. With C(#CC1CCCC1)c1ccc2c(c1)COc1c3ccccc3nn1-2 the Potency was inconclusive: 2.59 µM [activator, full curve]. In the case of Cc1cc(Br)cc2c(C(=O)NCC3CCCO3)cc(-c3ccccc3)nc12 (configuration not stated), the Potency was inconclusive: 16.4 µM [activator, partial curve, poor fit]. In the case of COc1ccc(-c2nc3ccccc3n2OCC(=O)O)cc1, the Potency was inconclusive: 18.3 µM [activator, partial curve]. In the case of COc1ccc(CNC(=O)C2CCCN(S(=O)(=O)c3c(C)noc3/C=C/N(C)C)C2)cc1 (configuration not stated), the “activity change, positive = activation” value was inactive: -1.57%. With Cc1ccccc1OCC(O)Cn1nnc2ccccc21 (configuration not stated) the Potency was inconclusive: 20.6 µM [activator, partial curve]. In the case of CC[C@]1(O)C[C@@H]2CN(CCc3c([nH]c4ccccc34)[C@@](C(=O)OC)(c3cc4c(cc3OC)N(C)[C@H]3[C@@](O)(C(=O)OC)[C@H](OC(C)=O)[C@]5(CC)C=CCN6CC[C@]43[C@@H]65)C2)C1, the Potency was inconclusive: 0.517 µM [activator, full curve, poor fit]. For COc1ccc(/C=C(/NC(=O)c2ccccc2)C(=O)N2CCOCC2)cc1OC, the “activity change, positive = activation” value was inactive: -3.27%. With CCN(CC)c1ccc(C(=O)OCC(=O)Nc2sccc2C#N)cc1 the Potency was inconclusive: 20.6 µM [activator, partial curve, poor fit]. For CN(C)S(=O)(=O)N1CCC(Oc2cccc(C(=O)N3CCCCCCC3)c2)CC1, the “activity change, positive = activation” value was inactive: -2.93%. With CC(=O)c1cccc(NC(=O)c2cc(-c3ccco3)on2)c1 the Potency was inconclusive: 16.4 µM [activator, partial curve, poor fit]. In the case of NS(=O)(=O)c1ccc(N2N=C(c3ccccc3)CC2c2ccccc2Br)cc1 (configuration not stated), the “activity change, positive = activation” value was inactive: -1.1%. With CCOC(=O)C1CN(S(=O)(=O)c2cccs2)c2ccc(CC(=O)OC)cc2O1 (configuration not stated) the “activity change, positive = activation” value was inactive: -5.85%. In the case of O=[N+]([O-])c1ccc(N/N=C/c2ccccc2)cc1, the Potency was inconclusive: 18.3 µM [activator, partial curve, poor fit]. In the case of Fc1ccc(-n2nnc(-c3cccnc3Cl)n2)cc1, the Potency was active: 5.8 µM. In the case of O=C(/C=C/c1ccc([N+](=O)[O-])cc1)Nc1ncc([N+](=O)[O-])s1, the Potency was inconclusive: 0.092 µM [activator, full curve, poor fit]. For O=C(NC1CC2CCCC(C1)N2C(=O)Nc1ccc(F)cc1)c1ccccc1 (configuration not stated), the “activity change, positive = activation” value was inactive: 0.0525%. With Cc1ccccc1OCCSc1nnc(C)n1-c1ccccc1 the Potency was inconclusive: 23.1 µM [activator, partial curve, poor fit]. In the case of CCCOc1ccc(CNC(=O)Cc2cccs2)cc1, the Potency was inconclusive: 20.6 µM [activator, partial curve, poor fit]. For COc1ccc(NC(=O)CSc2nccn2C)c([N+](=O)[O-])c1, the Potency was inconclusive: 14.6 µM [activator, partial curve]. For C/C(=N/NC(=O)c1cccs1)c1ccc(N2CCOCC2)cc1, the Potency was inconclusive: 18.4 µM [activator, single point]. In the case of COc1ccc(N(C(=O)c2cnccn2)C(C(=O)NCc2ccccc2)c2ccc(O)cc2)cc1 (configuration not stated), the Potency was inconclusive: 7.3 µM [activator, partial curve, poor fit]. For Cc1csc(NC(=S)Nc2cccc(Cl)c2)n1, the Potency was inconclusive: 16.4 µM [activator, partial curve, poor fit]. In the case of Cc1cccc(NC(=O)c2onc3c2CCCC3)n1, the Potency was active: 0.92 µM. In the case of Cc1ccc(C(=O)c2no[n+]([O-])c2C(=O)c2ccc(C)cc2)cc1, the “activity change, positive = activation” value was inactive: -1.95%. With Cn1c(=O)n(C)c2cc(/C=C(/C#N)C(=O)NCc3ccco3)ccc21 the Potency was inconclusive: 23.1 µM [activator, partial curve, poor fit]. For CCC(=O)OCCNc1nc(-c2ccccc2)nc2ccccc12, the Potency was inconclusive: 0.291 µM [activator, single point]. For Cc1ccccc1-c1nnn(CC(=O)Nc2ccc3c(c2)OCCO3)n1, the Potency was inconclusive: 29.1 µM [activator, single point]. For COc1ccc(Br)cc1C1Nc2cccc3cccc(c23)N1, the Potency was inconclusive: 25.9 µM [activator, partial curve, poor fit]. For Nc1nn(-c2ccccc2)c(N)c1N=Nc1cccc(F)c1, the Potency was active: 6.51 µM. With NS(=O)(=O)c1ccc(N=NN2CCCCC2)cc1 the “activity change, positive = activation” value was inactive: 11.4%. With CCOC(CNC(=O)C(=O)Nc1cc2c3c(c1)CCN3C(=O)CC2)OCC the Potency was inconclusive: 32.6 µM [activator, partial curve, poor fit]. In the case of COc1ccc(CN(C(=O)c2cc3ccccc3oc2=O)C2CCS(=O)(=O)C2)cc1OC (configuration not stated), the Potency was inconclusive: 8.2 µM [activator, partial curve]. In the case of CSc1ccc(/C=N/NC(=O)c2ccccc2Cl)cc1, the Potency was inconclusive: 23.1 µM [activator, single point]. For CCOC(=O)C1CCN(C(=O)Cn2cc3c(n2)CCC(C)C3)CC1 (configuration not stated), the Potency was inconclusive: 18.4 µM [activator, partial curve, poor fit]. With Cc1cc(C)n(CCCNC(=O)c2ccc(C)c(S(=O)(=O)N3CCOCC3)c2)n1 the “activity change, positive = activation” value was inactive: -4.01%. For N/C(=N\OC(=O)c1ccccc1)c1ccn[nH]1, the Potency was active: 10.3 µM. With CCCCc1ccc(NC(=S)Nc2cccnc2)cc1 the “activity change, positive = activation” value was inactive: -0.473%. With Cc1c(C(=O)NC2CCCCC2)oc2ccc(F)cc12 the Potency was inconclusive: 14.6 µM [activator, partial curve, poor fit]. With CC(=O)Nc1ccc(O)c(-c2nc3ccccc3s2)c1 the Potency was inconclusive: 13 µM [activator, partial curve]. With COc1ccc2nc(N3CCCCC3)c(C#N)cc2c1 the Potency was inconclusive: 20.6 µM [activator, partial curve, poor fit]. With Cc1cc(N/C=C/C(=O)c2cccs2)ccc1F the Potency was active: 2.91 µM. With Nc1ccccc1-c1nnc(-c2ccc(-c3ccccc3)cc2)o1 the Potency was active: 2.59 µM. For c1ccc(-c2n[nH]c(-c3ccccn3)n2)cc1, the Potency was inconclusive: 5.17 µM [activator, partial curve]. In the case of O=C(N/N=C/c1ccc(-n2ccnc2)cc1)c1cccs1, the Potency was inconclusive: 16.4 µM [activator, partial curve]. For CC(=O)CSc1ncnc2nc[nH]c12, the “activity change, positive = activation” value was inactive: -3.32%. In the case of CN(C)CCNc1ncnc2c1sc1nc(N3CCOCC3)c3c(c12)CC(C)(C)SC3, the Potency was inconclusive: 25.9 µM [activator, single point]. In the case of Cc1ccc(-n2[nH]c(C)c(/C=N/NC(=O)c3cccc([N+](=O)[O-])c3)c2=O)cc1C, the Potency was inconclusive: 32.6 µM [activator, partial curve, poor fit]. For COc1ccccc1C(=O)NNC(=O)c1cccc([N+](=O)[O-])c1, the Potency was inconclusive: 29.1 µM [activator, partial curve, poor fit]. For CCc1ccc(Nc2nnc(SCC(=O)NCCN3C(=O)CSC3=O)s2)cc1, the Potency was inconclusive: 13 µM [activator, partial curve, poor fit]. For CCOC(=O)c1ccccc1NC1c2ccccc2C(=O)N1c1ccc(C)cn1 (configuration not stated), the Potency was inconclusive: 13 µM [activator, partial curve, poor fit]. For COc1ccc(C(c2c(O)ccc3ccccc23)N2CCOCC2)c(OC)c1 (configuration not stated), the Potency was inconclusive: 10.3 µM [activator, partial curve, poor fit]. With O=C(Cc1ccccc1)Nc1ccc(N2CCCCC2)cc1 the Potency was active: 3.26 µM. In the case of O=C(O)c1cccc(NC(=O)C2C3C=CC(C3)C2C(=O)OCC(F)(F)C(F)F)c1 (configuration not stated), the “activity change, positive = activation” value was inactive: 5.77%. With O=C(O)Cc1csc(-c2cccc(F)c2)n1 the “activity change, positive = activation” value was inactive: -0.232%. With CN(C)CCCN1C(=O)c2cccc3c(Br)ccc(c23)C1=O the Potency was inconclusive: 29.1 µM [activator, single point].

From PubChem BioAssay AID504466 (National Center for Advancing Translational Sciences (NCATS), 2011)
Potency means the concentration at half of the fitted maximal effect; tags describe the fitted curve by direction and shape.
